About 25,000 (6.9%) of roughly 360,000 compounds were called active. Inconclusive means that the source gave no clear call. Such entries were picked first, then a sample of the others. The call rests on the fitted dose curve; in most records, active means well fitted inhibition curve with a large enough effect; inconclusive means small, poorly fitted or top-dose-only effect; inactive means flat fitted curve, though single readings scatter. A potency beside an inconclusive call is a rough fit, not a confirmed value.
Target: Luciferin 4-monooxygenase (Photinus pyralis) (UniProt P08659)
Chain of UniProt P08659 (P08659 whole entry, looked up): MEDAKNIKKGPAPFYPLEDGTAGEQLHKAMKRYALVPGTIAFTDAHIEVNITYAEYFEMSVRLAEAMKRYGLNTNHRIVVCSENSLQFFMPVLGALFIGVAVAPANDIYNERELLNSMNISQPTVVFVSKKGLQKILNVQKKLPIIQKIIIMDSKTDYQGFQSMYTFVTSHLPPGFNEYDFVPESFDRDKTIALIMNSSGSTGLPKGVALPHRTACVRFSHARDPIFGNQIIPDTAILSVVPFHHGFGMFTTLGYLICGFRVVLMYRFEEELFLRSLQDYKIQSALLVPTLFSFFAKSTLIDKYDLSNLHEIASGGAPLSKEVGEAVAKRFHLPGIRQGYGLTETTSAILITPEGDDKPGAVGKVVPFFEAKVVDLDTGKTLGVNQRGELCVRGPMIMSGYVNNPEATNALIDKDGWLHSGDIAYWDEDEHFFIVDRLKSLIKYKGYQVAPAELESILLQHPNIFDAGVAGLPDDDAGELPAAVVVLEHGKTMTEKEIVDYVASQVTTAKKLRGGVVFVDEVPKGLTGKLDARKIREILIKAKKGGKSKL
Experiment: qHTS profiling assay for firefly luciferase inhibitor/activator using purifed enzyme and Km concentrations of substrates (counterscreen for miR-21 project); further: nearly all actives have a fitted effect of over 55% in size
Details: purified FLuc, luminescence inhibition; series mostly up to 57.5 µM
How it was run: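 Purified P. pyralis luciferase, 10 nM final, with Km-level 10 uM D-luciferin and 10 uM ATP in 50 mM Tris acetate pH 7.5, 10 mM Mg acetate, 0.01% Tween-20, 0.05% BSA; 6-point qHTS titration about 60 µM downward; luminescence read.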
Potency means the concentration at half of the fitted maximal effect; tags describe the fitted curve by direction and shape.

Row | SMILES | Potency
1 | Cc1nn(-c2ccc(N3CCCCC3)nn2)c(C)c1CCC(=O)NCc1ccc(Cl)cc1 | inconclusive: 37.9 µM [inhibitor, partial curve, poor fit]
2 | Clc1ccc(-c2csc(N/N=C\c3cccnc3)n2)cc1 | inconclusive: 7.57 µM [inhibitor, partial curve, poor fit]
3 | c1ccc(NC2=NCCCCS2)cc1 | inactive
4 | CCOC(=O)c1c(-c2ccccc2)oc2ccc(N(C(C)=O)S(=O)(=O)c3ccc(C)cc3)cc12 | inactive
5 | COc1ccccc1-c1coc2cc(OC(=O)N3CCOCC3)ccc2c1=O | inconclusive: 26.9 µM [inhibitor, partial curve, poor fit]
6 | COCCN(C(=O)c1ccccc1F)c1nc(-c2ccc(OC)cc2)cs1 | inconclusive: 13.5 µM [inhibitor, partial curve]
7 | CCc1ccc(-c2nc(CN3CCC(C(=O)NCc4ccccc4OC)CC3)c(C)o2)cc1 | inconclusive: 23.9 µM [inhibitor, partial curve, poor fit]
8 | CC(C)C(=O)Nc1ccc(C(=O)Nc2nnc(C(C)C)s2)cc1 | inconclusive: 19 µM [inhibitor, partial curve, poor fit]
9 | C=C(C)CNC(=O)CCc1nnc(C2(c3ccc(Cl)cc3)CCC2)o1 | inconclusive: 23.9 µM [inhibitor, single point]
10 | COc1ccc(-c2csc(NC(=O)c3c(C)noc3C)n2)cc1 | inconclusive: 37.9 µM [inhibitor, single point]
11 | O=C1OCCC1Sc1nnc(-c2cccnc2)n1-c1ccccc1F (configuration not stated) | inactive
12 | O=C(Nc1cccc(C(F)(F)F)c1)C12CC3CC(CC(C3)C1)C2 | inconclusive: 7.57 µM [inhibitor, partial curve, poor fit]
13 | CC1CC(C)CN(C(=O)c2cc3c(s2)CCC3)C1 (configuration not stated) | inactive
14 | Cc1ccccc1CNC(=O)Nc1ccc2c(c1)N(C)C(=O)c1ccccc1S2 | inactive
15 | CC(C)(C)C1CCc2c(C(=O)NNC(=O)/C=C/C(=O)O)csc2C1 (configuration not stated) | active: 23.9 µM
16 | O=C(NC1CCCCC1)C(c1ccncc1)N(C(=O)c1csnn1)c1cccc(F)c1 (configuration not stated) | inactive
17 | O=C(c1cn(-c2ccccc2)nc1-c1cccs1)N1CCOCC1 | inconclusive: 23.9 µM [inhibitor, partial curve]
18 | CCOC(=O)c1cn2nc(Oc3cccc(F)c3)ccc2n1 | inconclusive: 16.9 µM [inhibitor, partial curve, poor fit]
19 | Cn1c(=O)c2cn(-c3cccc4ccccc34)cc2n(C)c1=O | inconclusive: 26.9 µM [inhibitor, partial curve]
20 | COC(=O)COc1cccc(NC(=O)c2cc(OC)cc(OC)c2)c1 | inconclusive: 37.9 µM [inhibitor, single point]
21 | COc1ccc(-c2n[nH]c(C)c2-c2ccc(Cl)cc2)c(O)c1 | inactive
22 | O=C(Nc1ccc2oc(-c3ccc(Cl)cc3)nc2c1)c1ccc2ccccc2c1 | inactive
23 | Cn1c2cc(B(O)O)sc2c2cnn(Cc3c(F)cccc3F)c(=O)c21 | inactive
24 | Fc1ccccc1NC(=S)NCCc1ccccc1 | inconclusive: 16.9 µM [inhibitor, single point]

Row | SMILES | Potency
25 | O=C(Nc1ccc2ccccc2c1)c1ccc(Br)o1 | active: 5.36 µM
26 | O=C(O)c1cccc(NC(=O)c2cccc(S(=O)(=O)N3CCc4ccccc43)c2)c1 | active: 21.3 µM
27 | CCOc1ccc(/C=C/C2=NNC(=O)CC2)cc1 | active: 15.1 µM
28 | NS(=O)(=O)c1ccc2nc(NC(=O)COc3ccc(Cl)cc3Cl)sc2c1 | inconclusive: 12 µM [inhibitor, partial curve, poor fit]
29 | CC(Sc1ncnc2sc(-c3ccccc3)cc12)C(=O)N1CCNC1=O (configuration not stated) | inconclusive: 2.69 µM [inhibitor, full curve]
30 | Cc1cc(N/N=C/c2ccc(O)cc2O)c2ccccc2n1 | inactive
31 | CC1CCN(C(=O)c2cccc(NC(=O)c3nsc4ccccc34)c2)CC1 | active: 3.38 µM
32 | c1nc(NCc2ccc3c(c2)OCO3)c2cc(-c3ccc4c(c3)OCCO4)ccc2n1 | inconclusive: 10.7 µM [inhibitor, partial curve]
33 | c1ccc(CCC2Cc3ccccc3N2)cc1 (configuration not stated) | inconclusive: 33.8 µM [inhibitor, partial curve, poor fit]
34 | Cn1cccc1/C=N/NC(=O)C12CC3CC(CC(C3)C1)C2 | inconclusive: 37.9 µM [inhibitor, partial curve, poor fit]
35 | COc1ccc2c(CNCc3cccs3)c(C(=O)O)n(Cc3ccccc3F)c2c1 | inactive
36 | COc1ccc(C(=O)Nc2nc(-c3ccc(S(=O)(=O)N4CCOCC4)cc3)cs2)cc1 | inconclusive: 9.53 µM [inhibitor, partial curve]
37 | Cc1cc(NC(=O)Cc2ccsc2)ccc1Br | active: 16.9 µM
38 | O=C(c1ccco1)N1CCN(c2ccc(Cl)cc2)CC1 | active: 16.9 µM
39 | COc1ccc(O)c(-c2cc(-c3ccccc3[N+](=O)[O-])[nH]n2)c1 | inconclusive: 37.9 µM [inhibitor, single point]
40 | COc1ccccc1CNC(=O)[C@H](NC(=O)C1CCN(C(=O)[C@@H](N)CCSC)CC1)C(C)C | inactive
41 | COc1cc(-c2nc(-c3cccc(C(F)(F)F)c3)no2)cc(OC)c1OC | inactive
42 | O=C(Nc1ccc2oc(-c3cccnc3)nc2c1)c1cccnc1 | inconclusive: 19 µM [inhibitor, partial curve, poor fit]
43 | Fc1ccc(/C=C/c2nnc(-c3cccs3)o2)cc1 | active: 2.69 µM
44 | CCc1ccc(NC(=O)C(=O)NCC2CCCO2)cc1 (configuration not stated) | inconclusive: 23.9 µM [inhibitor, partial curve]
45 | Cc1cccc(-c2nc(CSCC(=O)NCc3cccs3)c(C)o2)c1 | inconclusive: 23.9 µM [inhibitor, single point]
46 | O=C(CN1CCCCC1)Nc1nnc(-c2ccc([N+](=O)[O-])cc2)s1 | inconclusive: 21.3 µM [inhibitor, partial curve, poor fit]
47 | COc1ccc(C(=O)NCCn2cc(SCC(=O)Nc3ccc4c(c3)OCCO4)c3ccccc32)cc1OC | inconclusive: 37.9 µM [inhibitor, partial curve, poor fit]

Reference: PubChem BioAssay AID588342 (National Center for Advancing Translational Sciences (NCATS), 2011)
